Some of the results follow.

For this experiment, the target named is T1, OsWOX13 (Oryza sativa, UniProt Q5QMM3 1-267).
T1 sequence: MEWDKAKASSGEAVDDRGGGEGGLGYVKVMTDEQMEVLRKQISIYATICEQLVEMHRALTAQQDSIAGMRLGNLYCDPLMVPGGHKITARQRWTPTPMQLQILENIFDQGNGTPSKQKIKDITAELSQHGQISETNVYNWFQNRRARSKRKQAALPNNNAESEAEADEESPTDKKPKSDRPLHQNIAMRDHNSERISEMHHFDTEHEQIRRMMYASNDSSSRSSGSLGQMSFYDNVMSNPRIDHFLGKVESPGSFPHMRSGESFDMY
Description: protein-binding microarray (RPBM); PBS, 2% BSA, 51.3 ng/ul salmon testes DNA, 50 uM zinc acetate, 200 nM TF, 25 C, 1 h; high values mean tight binding. The following applies: protein: recombinant; tags: N-terminal polyhistidine and DsRed monomer fusion (pET32a); label: CyDye5-dUTP incorporated in the synthesized complementary strand; 3' TTTTT single-stranded linker to array surface; dsDNA, one strand shown. A digest of the protocol:
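Polyhistidine-tagged DsRed fusions of transcription factors, joined at the N-terminus, were expressed in E. coli BL21-CodonPlus and isolated on Ni–NTA. They were incubated at 200 nM for 1 h at 25 °C on a custom Agilent array, double-stranded and BSA-blocked, in PBS with 2% BSA, salmon testes DNA and 50 µM zinc acetate. The binding signal is per-feature fluorescence intensity (arbitrary units) read on an Axon 4000B scanner after washing.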
In the case of “GACTTGATTACCACGCGTATACTATATAGGACAAAATTGCCGGAGTCACCTAGTGCAG”, the binding signal was 17800 fluorescence intensity (a.u.). With “AATGATGGATGGGCAATGGCGCCAGCCCATAAGGCGTCAACGGAGTCACCTAGTGCAG” the figure was 6140 fluorescence intensity (a.u.); with “AACTAGGTCTGTCAGCCAACAATCACAGGAATCATTGCTACGGAGTCACCTAGTGCAG”, 3960 fluorescence intensity (a.u.). For “TTGCAAATTAAACAAAATAGTATGATTTTGCGGAGTACTACGGAGTCACCTAGTGCAG”, the binding signal was 15900 fluorescence intensity (a.u.). To “GATAATGTTATTGTAACTGCCGCAACAAGCTGCACCGAACCGGAGTCACCTAGTGCAG” belongs 4120 fluorescence intensity (a.u.); to “CGTAGTGATTAGCATGACTATTAAAAGCACCGGGATGATACGGAGTCACCTAGTGCAG”, 18600 fluorescence intensity (a.u.).

For the sequence “GTTGACAAGGGATTGAGTGAGTGCGTTGTAACGGTGGGCACGGAGTCACCTAGTGCAG”, the binding signal was 7350 fluorescence intensity (a.u.).

On to “TGATCAATTTAGAAAATTTAGAAAGGATGGAGCATATTTTCGGAGTCACCTAGTGCAG”, for which the binding signal was 4260 fluorescence intensity (a.u.). To “CCTTCTCAAACTAATCAATTATTATTAATTCAAAACATAGCGGAGTCACCTAGTGCAG” belongs 21400 fluorescence intensity (a.u.); to “GAGTAATTGGCAGTGATCAGCTTGCTATGATTGTGATTGACGGAGTCACCTAGTGCAG”, 51500 fluorescence intensity (a.u.); to “CATTGATGACACAAAATAGTAGCAACTAAACAAACCAGAACGGAGTCACCTAGTGCAG”, 6690 fluorescence intensity (a.u.). “GGCTATTGATTAGGCCTTTTATTTTACTTGTTACTAGTAACGGAGTCACCTAGTGCAG”: the binding signal was 36600 fluorescence intensity (a.u.). In the case of “GTAGTTGATAATTGGGTAATAATAAACTAATAATAGCGTCCGGAGTCACCTAGTGCAG”, the binding signal is 17500 fluorescence intensity (a.u.).

For the sequence “TTAACTACAATTTGACAGAATTTTAATAAATTGAAGTGAACGGAGTCACCTAGTGCAG”, the binding signal is 26800 fluorescence intensity (a.u.). In the case of “TTTTATCAATCTCCTATCCCTAAAACACACCTTAATAGACCGGAGTCACCTAGTGCAG”, the binding signal was 6110 fluorescence intensity (a.u.).

Take “CAATCTATCATTCTAATAACTGCACATTCAGTATCTCCAGCGGAGTCACCTAGTGCAG”: the binding signal is 4260 fluorescence intensity (a.u.). “CAATTCACTTTCAATCAGGACTCTGCATCATCCCAGACGGCGGAGTCACCTAGTGCAG”: the binding signal was 15900 fluorescence intensity (a.u.). Turning to “AAAATTTCTAACCGTATAATCACTCGGTCTAATGGTCGTACGGAGTCACCTAGTGCAG”, the binding signal was 3230 fluorescence intensity (a.u.).

Take “ATATAACTTAACAATCATCTGGATCTGATTGCTTAAACTCCGGAGTCACCTAGTGCAG”: the binding signal is 36300 fluorescence intensity (a.u.).

Take “AGTCATCAAAATTACGCATGTAATTAGTATATATAATTATCGGAGTCACCTAGTGCAG”: the binding signal was 9910 fluorescence intensity (a.u.). To “GTAATTATCTATGAGATAAATTATAGGGACCCTGCTATGACGGAGTCACCTAGTGCAG” belongs 6980 fluorescence intensity (a.u.); to “TCACTAATCTTATAACTAATCAAGCATTGACGCAGATGATCGGAGTCACCTAGTGCAG”, 11200 fluorescence intensity (a.u.). On to “TAGGATTGTTAATTATACCTACCTAAGCATACGATATTCACGGAGTCACCTAGTGCAG”, for which the binding signal is 12400 fluorescence intensity (a.u.). To “ACACTAATTAACCCTAAAACGAAAAGATAATCCAGCTATGCGGAGTCACCTAGTGCAG” belongs 17100 fluorescence intensity (a.u.).

Consider “TGAAATTTCTACTGTCATGCTTCCTTGTCCCATTACTACACGGAGTCACCTAGTGCAG”, for which the binding signal was 3170 fluorescence intensity (a.u.). With “GTTGTGATAATTACAAGAAACACTTACGGGTAGCCGTGATCGGAGTCACCTAGTGCAG”, the binding signal was 8530 fluorescence intensity (a.u.). For the sequence “CCCAGAGCTAATTAGACCACTACTGAATAATGACACTTTCCGGAGTCACCTAGTGCAG”, the binding signal is 11000 fluorescence intensity (a.u.). For the sequence “AAGATAGATAGATAGATAGATAGATAGATCGATCGATCATCGGAGTCACCTAGTGCAG”, the binding signal was 14900 fluorescence intensity (a.u.). As to “GTCCATGATTAGCCATAAGTGCTACCGTAACCCACCTGTGCGGAGTCACCTAGTGCAG”, the binding signal was 23300 fluorescence intensity (a.u.).

For the sequence “AATGGTAATTAAGAATTTACTACTCACAGTCTATAATACGCGGAGTCACCTAGTGCAG”, the binding signal was 8680 fluorescence intensity (a.u.).

Regarding “AAACCGAATTGAAGTTTATAAATTTGTCAGAATTTATCTTCGGAGTCACCTAGTGCAG”, the binding signal was 5290 fluorescence intensity (a.u.).

With “GCCCCGAGTTTTGATTGGTTATTCGTTGCTGCTTGTAAACCGGAGTCACCTAGTGCAG”, the binding signal was 24100 fluorescence intensity (a.u.). To “TCACGGATTAAATTTCGATCATTTTGAGGGTCACAAAGTGCGGAGTCACCTAGTGCAG” belongs 6040 fluorescence intensity (a.u.); to “GGTCATTTTGCCTAATTAACCCAGGCAATAATAAACATCTCGGAGTCACCTAGTGCAG”, 5120 fluorescence intensity (a.u.). Turning to “ATACAATTACAAGTCATTTTCAATGTAACTAACAATAGATCGGAGTCACCTAGTGCAG”, the binding signal was 4380 fluorescence intensity (a.u.).

As for “TGTGATTGAGGGAGTTAATTAGGACAAGTTAATAAGTGGCCGGAGTCACCTAGTGCAG”, the binding signal was 64500 fluorescence intensity (a.u.). Regarding “CAAATGAGATTATAAATCATTTTCAGATTACCTCTAATAGCGGAGTCACCTAGTGCAG”, the binding signal is 16700 fluorescence intensity (a.u.). Take “AAAACTCAATTAAACACACATTATTACCACCTCATTTTGCCGGAGTCACCTAGTGCAG”: the binding signal was 5860 fluorescence intensity (a.u.). Consider “GTAAATTGCGTCCACGGTATATAAACTTGGTAGGTGGGTGCGGAGTCACCTAGTGCAG”, for which the binding signal is 12600 fluorescence intensity (a.u.).

“CTCCAAGTCTGACTCAAACCAATCAATTCCACACAAGTTCCGGAGTCACCTAGTGCAG”: the binding signal was 4080 fluorescence intensity (a.u.). With “TGTGATTAGTACAGTAGTTTAATTAGAATTTTGAGGGCTTCGGAGTCACCTAGTGCAG” the figure was 44000 fluorescence intensity (a.u.); with “GAGATTATAGATTTATTTGCGGCCTCCATCTGTTGATCATCGGAGTCACCTAGTGCAG”, 18400 fluorescence intensity (a.u.).

These data come from PMC7819943, “Rice protein-binding microarrays: a tool to detect cis-acting elements near promoter regions in rice”.
